Test results reported in publication PMC4336329 (PLoS ONE, 2015).
The whole screen tested about 310,000 compounds, of which about 14,000 (4.5%) showed an effect of 50% or more. The effect is printed as a negative number. The list shows a part of the results.

Each compound was assayed against human ether-à-go-go-related gene (hERG) potassium channel (human, UniProt Q12809) (assay: primary screen, population patch clamp on CHO cells stably expressing hERG).
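Also: peak tail current of the secondary pulse compared with the same well before compound.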

human ether-à-go-go-related gene (hERG) potassium channel, sequence (Q12809 whole entry, looked up): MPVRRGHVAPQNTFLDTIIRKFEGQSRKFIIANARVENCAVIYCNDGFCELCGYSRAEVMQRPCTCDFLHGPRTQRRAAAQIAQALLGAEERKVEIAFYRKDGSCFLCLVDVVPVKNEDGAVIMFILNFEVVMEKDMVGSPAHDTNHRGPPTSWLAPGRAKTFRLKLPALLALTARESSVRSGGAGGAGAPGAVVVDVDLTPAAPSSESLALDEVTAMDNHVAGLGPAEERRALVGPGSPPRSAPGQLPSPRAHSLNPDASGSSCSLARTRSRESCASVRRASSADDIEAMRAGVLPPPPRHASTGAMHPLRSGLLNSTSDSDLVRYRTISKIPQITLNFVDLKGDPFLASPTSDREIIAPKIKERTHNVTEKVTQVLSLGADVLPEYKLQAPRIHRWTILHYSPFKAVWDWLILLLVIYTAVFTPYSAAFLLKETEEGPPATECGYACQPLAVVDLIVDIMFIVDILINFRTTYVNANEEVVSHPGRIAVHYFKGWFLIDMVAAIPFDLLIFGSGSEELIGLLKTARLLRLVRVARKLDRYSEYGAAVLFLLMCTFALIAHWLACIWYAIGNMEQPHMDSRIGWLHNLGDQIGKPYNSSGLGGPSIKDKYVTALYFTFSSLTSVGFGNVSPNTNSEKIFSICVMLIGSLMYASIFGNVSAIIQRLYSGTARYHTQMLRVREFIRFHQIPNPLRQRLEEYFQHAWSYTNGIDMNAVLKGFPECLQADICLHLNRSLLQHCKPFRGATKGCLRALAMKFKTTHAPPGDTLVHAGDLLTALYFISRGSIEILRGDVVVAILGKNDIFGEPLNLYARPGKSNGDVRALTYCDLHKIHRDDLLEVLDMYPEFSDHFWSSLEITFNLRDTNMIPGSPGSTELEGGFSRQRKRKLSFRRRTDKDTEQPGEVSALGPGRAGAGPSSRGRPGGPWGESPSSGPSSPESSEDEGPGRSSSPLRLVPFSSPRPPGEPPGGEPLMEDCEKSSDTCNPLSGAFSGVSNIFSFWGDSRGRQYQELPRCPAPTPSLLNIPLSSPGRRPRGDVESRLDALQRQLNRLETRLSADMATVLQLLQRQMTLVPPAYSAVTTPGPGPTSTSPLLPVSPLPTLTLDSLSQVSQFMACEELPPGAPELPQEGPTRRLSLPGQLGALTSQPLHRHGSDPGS

Compound | hERG current change (%, negative = inhibition) at 10uM [%]
COc1ccc(CCC(=O)NNC(=O)Cn2nc(C)cc2C)cc1 | 11.7
COc1nc(C)nc(Cl)c1NC1=NCCN1.Cl | 15.1
COc1ccc(S(=O)(=O)Cc2ccc(C(=O)N3CCN(c4ncccn4)CC3)o2)cc1 | -16.8
Cc1ccc(CNC(=O)Cn2cccc2)cc1 | 13.9
O=C(Nc1cccnc1)c1ccc(C(=O)Nc2cccnc2)cc1 | 29.7
Cc1c(C(=O)O)sc2nc(/C=C/c3cccc(O)c3)[nH]c(=O)c12 | 21.4
Cc1ccccc1-n1ncc2c1CC(C)(C)CC2NC(=O)c1snnc1C (stereo not drawn) | -3.08
CC1CC(C)(C)CC2(C1)NC(=O)N(CC(=O)N(C)Cc1nc3ccccc3c(=O)[nH]1)C2=O (stereo not drawn) | -22.8
Cc1nn(CC(=O)Nc2ccc(C#N)cc2)c(C)c1[N+](=O)[O-] | -25.2
COc1cccc(NC(=O)C2CC(=O)N(Cc3ccc(C)cc3)C2)c1 (stereo not drawn) | -9.9
CCOC(=O)N1CCN(C(=O)Cn2nc(C)n3nc(-c4ccc(CC)cc4)cc3c2=O)CC1 | 7.23
O=C(CSc1cn[nH]n1)Nc1ccccc1C(F)(F)F | 8.13
COc1cccc(NC(=O)COC(=O)CCC2CCCC2)c1 | -4.57
COc1ccc(CNC(=O)c2cccc(S(=O)(=O)N3CCN(C)CC3)c2)cc1 | 16.2
COc1ccc(-n2cc(CNCCCN3CCCC3=O)c(-c3ccccc3Cl)n2)cc1 | -60.9
FC(F)(F)c1cc(-c2ccccc2)nc2ncnn12 | 7.8
Cc1ccc(NC(=O)CN(C)Cc2nc3c(Br)cc(Br)cc3c(=O)[nH]2)cc1 | -10.7
Cc1ccc(C(=O)Nc2ccc(Cl)cn2)cc1S(=O)(=O)N1CCOCC1 | -51.4
Cc1ccc(C)c(NC(=O)CN(C)C(=O)COc2cccc3c2OC(C)(C)C3)c1 | -24.4
Nc1c(-c2cccc(Cl)c2)cnn1-c1ccccc1 | -60.3
COc1ccccc1N1CCN(C(=O)NC23CC4CC(CC(C4)C2)C3)CC1 | 13.5
CC(=O)CC(=O)Nc1cccc2c1CCCC2 | 17.3

Compound | hERG current change (%, negative = inhibition) at 10uM [%]
CC1CCN(Cc2nc3c(c(=O)n(C)c(=O)n3C)n2CCc2ccccc2)CC1 | -11.6
Cc1nccn1S(=O)(=O)c1ccc(Br)cc1Br | -3.62
CC(=O)c1ccccc1N(C(=O)c1ccco1)C(C(=O)NC1CCCC1)c1ccc(C)cc1 (stereo not drawn) | 7.13
O=c1oc2ccccc2c(N2CCCCC2)c1CN1CCCCC1 | -18.4
O=C(CSc1nnc(CNc2ccc(F)cc2)n1CC1CCCO1)Nc1ccccc1 (stereo not drawn) | -35.5
COc1cc(C(=O)NC(=S)N(CCc2ccccc2)CCc2ccccc2)cc(OC)c1OC | 0.172
Cc1ccc(CS(=O)Cc2ccc(C(=O)NCc3ccc(OC(C)C)cc3)o2)cc1 (stereo not drawn) | 8.25
CC(C)N1CCN(C(=O)c2ccc([N+](=O)[O-])cc2)CC1 | -39.8
COc1ccc(C(C#N)Nc2ccc(C)cc2)cc1 (stereo not drawn) | 5.72
CC(C)(C)/C=N/NC(=O)C1CC1 | 13.7
CCCC(=O)Nc1ncnc2c1ncn2[C@@H]1O[C@@H]2OP(=O)([O-])OC[C@H]2[C@H]1OC(=O)CCC.O.[Na+] | -2.82
O=C(Nc1cc(C(F)(F)F)ccc1Cl)c1cc(C2CC2)on1 | 10.3
CCN(C(=O)C1CCN(S(=O)(=O)c2cccc3nonc23)CC1)c1ccccc1 | -3.13
CSc1cccc(NC(=O)COc2ccccc2)c1 | -17.6
Cc1ccc(NC(=O)Cn2nc(-c3ccco3)ccc2=O)cc1Cl | 10.8
COc1cccc(C(=O)NC(=O)Nc2cc(C)on2)c1 | 14.7
COc1ccc(CCN(C)C(=O)C(CCSC)NC(=O)c2ccco2)cc1OC (stereo not drawn) | 8.6
Cc1ccc(C)c(Cn2nnc3c(=O)[nH]c(C4CCCN(C(=O)CC(C)C)C4)nc32)c1 (stereo not drawn) | -14.6
CCOc1ccc(CNS(=O)(=O)c2c(C)nc3sccn3c2=O)cc1OC | -66.1
O=C(Nc1c2c(nn1-c1ccc(F)cc1)CS(=O)(=O)C2)c1ccc2c(c1)OCO2 | -33.2
COc1ccc(-n2c(-c3ccc(Cl)cc3)c[n+]3c2CCCCC3)cc1.[Br-] | -29.8
Cc1ccc(OCCC(=O)OCC(=O)Nc2cc(C)nn2-c2ccccc2)cc1 | -32.7

Compound | hERG current change (%, negative = inhibition) at 10uM [%]
CN(CC1CCCCO1)C(=O)c1cc(COc2ccc(F)cc2Cl)on1 (stereo not drawn) | -87.1
Nc1nc(CC(=O)CSc2ccc(Cl)cc2)nc(Nc2ccc(F)cc2)n1 | 6.31
Cc1ccc(NC(=O)CSCc2cc(=O)n3ccsc3n2)cc1 | 14.2
Cc1ccccc1N/C=C/C(=C(C#N)C#N)N(C)C | -7.8
CCCSc1ccc([C@H]2N[C@@](Cc3ccccc3)(C(=O)OC)[C@H]3C(=O)N(CC)C(=O)[C@@H]23)cc1.O=C(O)C(F)(F)F | 6.44
CN(C(=O)CC1C(=O)NCCN1Cc1ccccc1C(F)(F)F)C1CCOCC1 (stereo not drawn) | 19.2
CC(=O)c1cn(Cc2ccccc2)c(=O)n(Cc2ccc(F)cc2)c1=O | -4.64
Cc1cc(C(=O)N2CC(C)CC(C)C2)n(-c2ccccc2)n1 (stereo not drawn) | 1.03
CC(=O)c1ccc(N2CCN(c3ccc(C(N)=O)cc3[N+](=O)[O-])CC2)cc1 | -10.9
NC(=O)C1CCN(C(=O)COc2ccc3ccccc3c2)CC1 | 18.2
COc1ccc(OC)c(-c2cc(C(=O)Nc3c(C)n(C)n(-c4ccccc4)c3=O)no2)c1 | -14.5
O=C(NCCc1c[nH]c2ccccc12)OCCSS(=O)(=O)[O-].[Na+] | 9.49
Cc1ccc(Sc2ncccc2COC(=O)NC(C)C)cc1 | 4.99
Nc1cccc(Oc2ccc3c(c2)C(=O)NC3=O)c1 | 8.45
CN(c1ccccc1)S(=O)(=O)c1ccc(C(=O)N2CCCC2)cc1 | 5.6
CCOC(=O)N1CCN(S(=O)(=O)c2c(C)nc3sccn3c2=O)CC1 | 21
Cc1cccc(-n2c(C)cc(/C=N/n3cnnc3)c2C)c1 | -0.869
Cc1ccc(-n2ncc3c(=O)n(CC(=O)NCC4CCCO4)cnc32)cc1 (stereo not drawn) | -2.01
Cc1ccc(NC(=O)COc2ccc(-c3nnco3)cc2)cc1S(=O)(=O)N1CCOCC1 | -3.68
CC(C)CCNC(=O)NC(=O)COC(=O)CNC(=O)C1CCCCC1 | -3.51
CCCCN1CNC(=S)N(CCc2ccccc2)C1 | -24.7
COc1cc2c(=O)n(CC3CCCO3)c(=O)n(CC(=O)Nc3ccccc3)c2cc1OC (stereo not drawn) | -2.85

Compound | hERG current change (%, negative = inhibition) at 10uM [%]
CCc1ccc(OCC(=O)Nc2ccc3c(c2)OCCO3)cc1 | 8.26
Cc1ccc(OCCn2ccnc2)c([N+](=O)[O-])c1 | -4.29
O=C(c1cc(COc2ccc(F)cc2F)on1)N1CCSCC1 | -11.7
Cc1nc(-c2ccccc2)sc1C1(C)CC(c2ccccc2F)=NO1 (stereo not drawn) | 1.13
CCCC(=O)Nc1cc(C(F)(F)F)ccc1N1CCOCC1 | 3.3
CN(C(=O)COC(=O)CN1C(=O)c2ccccc2C1=O)c1c(N)n(Cc2ccccc2)c(=O)[nH]c1=O | -4.4
CCC(=NCc1ccco1)c1c(O)n(-c2ccccc2)c(=O)[nH]c1=O | -0.174
Cc1ccc(C(=O)CSc2nnc(N)s2)c(C)c1 | -2.46
O=C(Nc1ccc(Oc2cccnc2)cc1)c1ccccc1Cl | 9.45
C=C[C@]1(C)C[C@@H](OC(=O)CSCCN(CC)CC)[C@]2(C)C(C)CC[C@]3(CCC(=O)[C@H]32)[C@@H](C)[C@@H]1O (stereo partly drawn) | -61.9
CC[N+]12CCC(CC1)C(C(O)(c1ccccc1)c1ccccc1)C2.[Br-] (stereo not drawn) | -5.24
C=CCN(c1ccccc1)S(=O)(=O)c1cccc2cccnc12 | -19
Clc1ccc(CSc2ccc(-c3cccnc3)nn2)cc1 | -48.6
C#CCCOC(=O)N1C2=NC(C(=O)OC)=C(C(=O)OC)[C@@H]3N(C)c4ccccc4[C@]23C[C@H]1C(=O)OC | -9.95
CCCCNC(=S)NNC(=O)c1cc(C2CC2)nc2ccccc12 | 8.3
O=C(Nc1nnc(-c2ccco2)o1)c1ccc(S(=O)(=O)N2CCOCC2)cc1 | 17.6
O=C(O)c1ccc2cccnc2n1 | 30.9
C=CCn1c(O)c(C(CC)=NC(C)c2ccccc2)c(=O)[nH]c1=O (stereo not drawn) | -14.8
C/C(=C1/C(=O)N(c2ccc([N+](=O)[O-])cc2)N=C1c1ccccc1)N(C)C | -13.9
CN(C)/C=C1\C(=O)NN=C1c1ccccc1 | -2.22
CC(Oc1cc2oc(=O)c3c(c2cc1Cl)CCC3)C(=O)NC1CC(C)(C)NC(C)(C)C1 (stereo not drawn) | -5.69
